In the CheMixHub viscosity set:

Details: 303.15 K; 101 kPa

For `OCc1ccccc1`, which viscosity is on record?
The viscosity was 4.201 ± 0.18 mPa·s [study A] and 4.65 ± 0.1 mPa·s [study B] and 4.605 ± 0.036 mPa·s [study C] and 4.654 ± 0.22 mPa·s [study D] and 4.645 ± 0.04 mPa·s [study E] and 4.525 ± 0.039 mPa·s [study F].

Which viscosity does the source give for `CCC(=O)CC` here?
The viscosity was 0.428 ± 0.02 mPa·s [study A] and 0.414 ± 0.016 mPa·s [study B] and 0.419 ± 0.011 mPa·s [study C] and 0.419 ± 0.006 mPa·s [study D].

± gives the uncertainty stated by the source. A number of entries come with more than one value. They are shown here; other results are not. The source may hold further records. Values that stand side by side are repeats across runs, samples, wells, individuals or studies. What stands in brackets tells the records apart. Letters count within one entry.
